Experimental data taken from paper PMC9535003.
Where two headings read alike, the source gives them in different places. These are yes or no findings as the source states them, for the method shown. Binding seen in cells or lysates may run through a third protein. Some entries that bind do so weakly or less than the wild type. Sequences can lack the tags named with a protein. Each block holds one molecule with its values, some of them ahead of it.

By UniProt entry, the sequences of proteins in these tests, tags left out.
UniProt Q96524: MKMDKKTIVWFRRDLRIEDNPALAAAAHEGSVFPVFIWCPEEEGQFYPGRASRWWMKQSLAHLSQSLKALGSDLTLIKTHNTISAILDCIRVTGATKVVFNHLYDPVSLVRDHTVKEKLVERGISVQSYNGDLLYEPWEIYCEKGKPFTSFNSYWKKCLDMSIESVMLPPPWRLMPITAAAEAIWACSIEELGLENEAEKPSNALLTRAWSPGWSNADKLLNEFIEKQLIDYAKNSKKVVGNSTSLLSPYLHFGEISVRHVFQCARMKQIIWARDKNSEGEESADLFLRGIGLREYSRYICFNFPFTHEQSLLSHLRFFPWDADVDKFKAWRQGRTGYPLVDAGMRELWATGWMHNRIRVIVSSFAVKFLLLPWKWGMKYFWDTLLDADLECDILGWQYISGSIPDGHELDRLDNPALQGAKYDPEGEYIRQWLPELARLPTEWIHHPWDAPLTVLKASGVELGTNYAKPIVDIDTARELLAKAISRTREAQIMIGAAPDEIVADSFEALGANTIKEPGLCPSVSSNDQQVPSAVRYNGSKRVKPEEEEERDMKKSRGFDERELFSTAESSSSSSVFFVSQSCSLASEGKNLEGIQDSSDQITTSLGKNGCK
UniProt Q43125: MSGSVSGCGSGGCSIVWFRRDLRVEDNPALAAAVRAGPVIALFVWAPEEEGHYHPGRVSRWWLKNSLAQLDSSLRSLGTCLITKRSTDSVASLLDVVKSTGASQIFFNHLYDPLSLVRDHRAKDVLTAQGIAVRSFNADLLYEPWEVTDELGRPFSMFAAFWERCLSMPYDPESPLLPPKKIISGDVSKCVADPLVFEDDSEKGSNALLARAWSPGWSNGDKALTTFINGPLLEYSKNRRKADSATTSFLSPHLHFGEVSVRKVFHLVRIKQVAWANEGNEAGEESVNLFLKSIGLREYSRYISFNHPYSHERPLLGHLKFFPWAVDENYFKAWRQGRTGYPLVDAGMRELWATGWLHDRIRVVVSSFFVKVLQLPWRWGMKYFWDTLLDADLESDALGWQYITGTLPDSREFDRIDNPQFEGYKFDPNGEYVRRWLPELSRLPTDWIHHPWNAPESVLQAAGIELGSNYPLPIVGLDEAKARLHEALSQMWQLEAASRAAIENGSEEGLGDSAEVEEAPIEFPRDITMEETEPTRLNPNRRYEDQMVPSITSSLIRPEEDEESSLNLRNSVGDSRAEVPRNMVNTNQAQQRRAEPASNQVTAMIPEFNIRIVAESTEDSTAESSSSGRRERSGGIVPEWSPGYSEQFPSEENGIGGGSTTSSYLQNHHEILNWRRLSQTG

What was measured:
[1] = target: T1, PRR9-GFP (Arabidopsis) (UniProt Q8L500); assay: co-IP; competitive co-IP: PRR9-GFP immunoprecipitated, TPL-FLAG or PPK1-Flag co-expressed with or without CRY2-HA; blots with GFP, Flag and HA antibodies
T1 sequence: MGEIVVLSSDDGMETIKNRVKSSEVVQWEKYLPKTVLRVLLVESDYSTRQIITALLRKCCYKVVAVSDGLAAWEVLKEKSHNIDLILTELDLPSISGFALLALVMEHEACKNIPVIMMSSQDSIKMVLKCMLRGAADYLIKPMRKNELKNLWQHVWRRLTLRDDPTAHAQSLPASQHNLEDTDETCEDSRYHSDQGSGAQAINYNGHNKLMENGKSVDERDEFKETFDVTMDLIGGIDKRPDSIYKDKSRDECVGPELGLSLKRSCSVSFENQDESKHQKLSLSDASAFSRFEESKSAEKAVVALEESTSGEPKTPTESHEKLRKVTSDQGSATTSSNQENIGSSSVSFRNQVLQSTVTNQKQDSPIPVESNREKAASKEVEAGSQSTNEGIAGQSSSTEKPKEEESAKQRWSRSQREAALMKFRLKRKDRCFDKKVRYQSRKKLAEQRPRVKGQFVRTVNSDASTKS

[2] = target: T2, PRR9-nYFP (Arabidopsis) (UniProt Q8L500); assay: split reporter; BiFC: nYFP and cYFP fusions and H2B-mCherry co-infiltrated (5:5:1) into N. benthamiana leaves for 3 days; confocal microscopy
T2 sequence: T1 sequence

[3] = target: T3, PRR9-NanoLucN (Arabidopsis) (UniProt Q8L500); assay: split reporter; split nano-luciferase complementation: NanoLucN and NanoLucC fusions co-expressed in N. benthamiana leaves for 3 days; furimazine, CCD camera
T3 sequence: T1 sequence

[4] = target: T4, PRR9-GFP (CsVMVpro:PRR9-GFP transgenic line) (Arabidopsis) (UniProt Q8L500); assay: co-IP; etiolated seedlings of the Arabidopsis CsVMVpro:PRR9-GFP line, with blue light; GFP-Trap beads; endogenous CRY2 detected
T4 sequence: T1 sequence

[5] = target: T5, PRR9-MBP (Arabidopsis) (UniProt Q8L500); assay: pull-down; recombinant PRR9-MBP or MBP resin incubated with extracts of tobacco leaves or Arabidopsis seedlings, 4 C, 2 h; pulled-down proteins detected with GFP antibody; GFP-CRY2 seedlings exposed to dark, red or blue light (10 umol m^-2 s^-1) for 10 min; only the target purified
T5 sequence: T1 sequence

[6] = target: CRY2-GFP (Arabidopsis) (UniProt Q96524); assay: co-IP; co-expression in N. benthamiana leaves, 3 days; GFP-Trap beads, 4 C, 1 h, 150 mM NaCl, 0.2% NP-40; blots with GFP and HA antibodies; for CRY2-GFP and PRR9-HA also after 10 min dark, red or blue light (10 umol m^-2 s^-1)
[7] = target: CRY1 (GFP-tagged) (Arabidopsis) (UniProt Q43125); assay: as above
[8] = target: T1, PRR9-GFP (Arabidopsis); assay: co-IP; competitive co-IP: PRR9-GFP immunoprecipitated, TPL-FLAG or PPK1-Flag co-expressed with or without CRY2-HA; blots with GFP, Flag and HA antibodies; remark: listed apart in the source

- binding [1]: binds
Molecule: CRY2-HA (from UniProt Q96524 1-612)

- binding [2]: binds
Molecule: CRY2-cYFP (from UniProt Q96524 1-612)

- binding [3]: no binding
Molecule: CRY1-NanoLucC (from UniProt Q43125 1-681)

- binding [3]: binds
Molecule: CRY2-NanoLucC (from UniProt Q96524 1-612)

- binding [2]: no binding
Molecule: CRY1-cYFP (from UniProt Q43125 1-681)

- binding [4]: binds
Molecule: endogenous CRY2 (from UniProt Q96524 1-612)

- binding [5]: binds
Molecule: GFP-CRY2 (from UniProt Q96524 1-612)

- binding [6]: binds
- binding [7]: no binding
B1: PRR9-HA (protein, UniProt Q8L500 1-468)
chain: T1 sequence

- binding [8]: binds
B2: TPL-FLAG (protein, UniProt Q94AI7 1-1131)
chain: MSSLSRELVFLILQFLDEEKFKETVHKLEQESGFFFNMKYFEDEVHNGNWDEVEKYLSGFTKVDDNRYSMKIFFEIRKQKYLEALDKHDRPKAVDILVKDLKVFSTFNEELFKEITQLLTLENFRENEQLSKYGDTKSARAIMLVELKKLIEANPLFRDKLQFPTLRNSRLRTLINQSLNWQHQLCKNPRPNPDIKTLFVDHSCGPPNGARAPSPVNNPLLGGIPKAGGFPPLGAHGPFQPTASPVPTPLAGWMSSPSSVPHPAVSAGAIALGGPSIPAALKHPRTPPTNASLDYPSADSEHVSKRTRPMGISDEVNLGVNMLPMSFSGQAHGHSPAFKAPDDLPKTVARTLSQGSSPMSMDFHPIKQTLLLVGTNVGDIGLWEVGSRERLVQKTFKVWDLSKCSMPLQAALVKEPVVSVNRVIWSPDGSLFGVAYSRHIVQLYSYHGGEDMRQHLEIDAHVGGVNDISFSTPNKQLCVITCGDDKTIKVWDAATGVKRHTFEGHEAPVYSVCPHYKENIQFIFSTALDGKIKAWLYDNMGSRVDYDAPGRWCTTMAYSADGTRLFSCGTSKDGESFIVEWNESEGAVKRTYQGFHKRSLGVVQFDTTKNRYLAAGDDFSIKFWDMDAVQLLTAIDGDGGLQASPRIRFNKEGSLLAVSGNENVIKIMANSDGLRLLHTFENISSESSKPAINSIAAAAAAAATSAGHADRSANVVSIQGMNGDSRNMVDVKPVITEESNDKSKIWKLTEVSEPSQCRSLRLPENLRVAKISRLIFTNSGNAILALASNAIHLLWKWQRNERNATGKATASLPPQQWQPASGILMTNDVAETNPEEAVPCFALSKNDSYVMSASGGKISLFNMMTFKTMATFMPPPPAATFLAFHPQDNNIIAIGMDDSTIQIYNVRVDEVKSKLKGHSKRITGLAFSNVLNVLVSSGADAQLCVWNTDGWEKQRSKVLPLPQGRPNSAPSDTRVQFHQDQAHFLVVHETQLAIYETTKLECMKQWAVRESLAPITHATFSCDSQLVYASFMDATVCVFSSANLRLRCRVNPSAYLPASLSNSNVHPLVIAAHPQEPNMFAVGLSDGGVHIFEPLESEGKWGVAPPAENGSASGAPTAPSVGASASDQPQR
